# The campaign covered roughly 110,000 compounds. About 230 (0.21%) showed an effect of 50% or more. Some of the results follow.
# Biological target: DPAP1 (Plasmodium falciparum, UniProt Q8IIJ9)
# Test: primary screen, percent inhibition; read by cleavage of a fluorogenic dipeptide substrate; higher = more effect of the substance
# Design: species or system P. falciparum D10 trophozoite lysates; single well
# 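Further: 30 min substrate incubation versus DMSO and 10 µM JCP410 controls.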
# DPAP1, sequence (Q8IIJ9 whole entry, looked up): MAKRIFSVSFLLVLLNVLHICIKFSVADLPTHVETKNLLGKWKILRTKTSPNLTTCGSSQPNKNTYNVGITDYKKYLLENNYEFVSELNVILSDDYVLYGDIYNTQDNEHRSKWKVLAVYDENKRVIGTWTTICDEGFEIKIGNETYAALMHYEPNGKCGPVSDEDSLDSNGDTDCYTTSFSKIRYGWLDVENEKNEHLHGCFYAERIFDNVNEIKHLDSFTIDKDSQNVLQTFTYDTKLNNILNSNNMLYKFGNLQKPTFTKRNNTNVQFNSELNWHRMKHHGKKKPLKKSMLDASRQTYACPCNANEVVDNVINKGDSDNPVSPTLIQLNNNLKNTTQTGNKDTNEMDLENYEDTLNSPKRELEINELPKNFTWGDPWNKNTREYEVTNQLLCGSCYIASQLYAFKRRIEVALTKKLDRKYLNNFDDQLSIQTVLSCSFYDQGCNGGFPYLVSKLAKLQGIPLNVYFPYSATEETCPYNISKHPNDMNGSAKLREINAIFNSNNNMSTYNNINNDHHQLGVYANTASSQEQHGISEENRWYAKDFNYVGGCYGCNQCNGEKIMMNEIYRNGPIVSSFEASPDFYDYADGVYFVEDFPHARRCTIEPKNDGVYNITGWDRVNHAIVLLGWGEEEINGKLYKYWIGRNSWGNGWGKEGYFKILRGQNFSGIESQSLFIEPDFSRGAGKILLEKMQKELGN
row,SMILES,% Inhibition @ 10 uM [%]
1,COc1cc(C2C(C#N)=C(N)Oc3[nH]nc(C)c32)cc(Br)c1OCc1ccc(F)cc1 (stereo not drawn),-1.64
2,CC1(C)OC(=O)N(Cc2cccnc2)C1(C)O (stereo not drawn),1.76
3,C/C=C/C(=O)Nc1ccc(OC)cc1,0.912
4,CC(NC(=O)CN1N=C(c2ccccc2)CCC1=O)c1ccccc1 (stereo not drawn),0.514
5,N#CC1=C(N)Oc2[nH]nc(-c3cccs3)c2C1c1cccc(F)c1 (stereo not drawn),3.05
6,CCOC(=O)c1c(C)oc2c1cc(NS(=O)(=O)c1ccc(Cl)cc1)c1ccccc12,-2.63
7,COc1ccccc1NC(=O)COc1cc(Br)c(/C=C2\SC(N)=NC2=O)cc1OC,-5.32
8,Cc1ccc(N(C)C(=O)N2CCN(S(=O)(=O)c3c(C)cc(C)cc3C)CC2)cc1,0.145
9,O=C1OCCN/C1=C\C(=O)c1ccccc1,-0.807
10,CC(=O)Nc1ccc(S(=O)(=O)NCc2cccs2)cc1,2.93
11,CCOC(=O)c1[nH]c2c(OC)cc(OC)cc2c1CCN1C(=O)c2ccccc2C1=O,-7.67
12,CCOc1ccc(-c2nnc(NC(=O)c3ccco3)s2)cc1,-2.6
13,Cc1cc(Br)ccc1S(=O)(=O)N1CCCCC1,0.565
14,CC1CCN(C2CCN(Cc3ccccc3F)CC2)CC1,3.54
15,CCOC(=O)c1[nH]c2c(c1Cc1ccccc1OC)C(=O)CC(C)(C)C2,4.07
16,COc1ccc(C(=O)Nc2cccc3c2CCCC3)cc1,4.22
17,CCOc1cccc(C2SCC(C(=O)O)N2C(C)=O)c1O (stereo not drawn),1.79
18,Cc1ccc(NC(=O)c2cccs2)cc1Cl,-0.856
19,CCN1CCN(c2cc(C)c3ccc(Cl)cc3n2)CC1,-1.85
20,Cc1ccc(CCNC(=O)C(C)n2nc(C)c3c(C)n(-c4ccccc4)nc3c2=O)cc1 (stereo not drawn),0.227
21,O=C1N=C(N2CCOCC2)SC1=C1CCCC1,-1.33
22,Cc1cccc(OCC(=O)Nc2cc(-c3nc4ncccc4o3)ccc2Cl)c1,4.83
23,CCCc1cc(C(=O)N2N=C(C(F)F)CC2(O)C(F)F)c2ccccc2n1 (stereo not drawn),-1.36
24,COc1ccc(C(=O)Nc2cccnc2)cc1S(=O)(=O)N1CCOCC1,-6.04
25,C=CCSc1nc(O)c2c(n1)NC(=O)CC2c1cccc(F)c1F (stereo not drawn),-2.88
26,CN1CCN(C(=O)NCC2CC(=O)N(Cc3ccccc3)C2)CC1 (stereo not drawn),-0.318

row,SMILES,% Inhibition @ 10 uM [%]
1,Nc1cc(C(=O)O)c(N)cc1C(=O)O,3.32
2,O=C(O)c1ccc2c(c1)C(=O)N(c1ccccc1O)C2=O,-1.29
3,Cc1ccc(S(=O)(=O)N2CCCCCC2)cc1C(=O)NC1CCCCC1,-6.3
4,CC(C)C[C@H](NC(=O)c1ccc([N+](=O)[O-])cc1)C(=O)NCC#N,-1.41
5,COc1cc(C2NC(=O)CS2)cc(OC)c1OC (stereo not drawn),0.774
6,COCCCNC1CCC(C(C)(C)C)CC1 (stereo not drawn),-1.5
7,C=CCN(C#N)c1nc(N(C)C)nc(N(C)C)n1,-1.92
8,CC(C)=CCCC(C)CN1CCN(C/C=C/c2ccccc2)CC1 (stereo not drawn),-2.24
9,CCS(=O)(=O)C1=NN2C(=N)/C(=C\c3ccc(OC)c(OC)c3)C(=O)N=C2S1,1.9
10,Cn1c(=O)[nH]c(=O)c2c1ncn2CCNC1=NCCCCC1,-5.14
11,Cc1cccc(OCC(=O)N2CCN(C(=O)c3ccccc3F)CC2)c1,1.84
12,CCOc1ccc2nc(NC(=O)Nc3sc4nc5n(c(=O)c4c3C)CCC(C)CC5)sc2c1 (stereo not drawn),0.0198
13,COC(=O)C1=CN(C2CCCCC2)C=C(C(=O)OC)C1c1cccc(C)c1,-1.11
14,CCn1cc(Cl)c(C(=O)Nc2c(C)nn(Cc3cccc(F)c3)c2C)n1,-5.48
15,CC1=C(C(=O)Nc2ccccc2C)C(c2ccc(C)cc2)NC(=O)N1 (stereo not drawn),9.5
16,CCN(CC)c1ccc(/C=C/C(=O)C23CC4CC(CC(C4)C2)C3)cc1,1.38
17,CCOC(=O)c1sc2ccc(S(=O)(=O)N3CCCCC3)cc2c1N,-1.99
18,CCCCOC(=O)Nc1nc2ccc(OC)cc2s1,-5.01
19,Cc1ccc2c(C)nc(Nc3nc(O)c4c(n3)CCCC4)nc2c1,-1.42
20,CC(C)Cc1ccc(-c2[nH]nc3c2C(c2ccsc2)C(C#N)=C(N)O3)cc1 (stereo not drawn),-4.51
21,CCOC(=O)c1c(NCc2ccccc2O)sc2c1CCCC2,6.12
22,CCc1ccc(CNC(=O)CN2N=C(c3ccc(C)cc3)CCC2=O)cc1,-1.43
23,CC(O)CN(Cc1ccc(F)cc1F)CC(C)O (stereo not drawn),-1.21
24,Cc1cc(C)c(-c2c(O)c3cccnc3n(C)c2=O)c(C)c1,-1.99
25,CC(=O)Nc1scc(-c2ccccc2)c1C(=O)N1CCOCC1,0.778

# — PMC6919601, “Identification of Plasmodium dipeptidyl aminopeptidase allosteric inhibitors by high throughput screening” (PLoS ONE, 2019)
